# Where “and” joins values, the source holds several entries; their conditions need not be identical. Equal entries are not always repeated. Inconclusive means that the source gave no clear call. Such entries were picked first, then a sample of the others. A potency beside an inconclusive call is a rough fit, not a confirmed value. Calls of active or inactive are those of the source. Unless noted, calls come from the whole dose curve; as a rule, active = well fitted cell-killing curve with a large enough effect in the repeat runs; inconclusive = weak or mixed curves, or effect the other way; inactive = no such curve, though single readings can be large or run the other way.
# Key:
# [1] = target: Bile acid receptor (Homo sapiens) (UniProt Q96RI1); test: qHTS assay to identify small molecule agonists of the farnesoid-X-receptor (FXR) signaling pathway (AID 743220; active = well fitted activation curve with a large enough effect in the signal ratio in the repeat runs, not every such curve was filed as active; inconclusive = weak or mixed curves, or effect the other way; the % refers to the signal ratio; for activation: % is set by controls: 0 for no effect and ±100 for the full control effect); conditions: HEK293T FXR-UAS-bla, beta-lactamase FRET ratio, 16 h; activation: at 62.6 µM (top of the series) unless noted
# Summary of the method: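 FXR-UAS-bla HEK 293T cells carrying a UAS-driven beta-lactamase reporter were plated for 5 h at 37C/5% CO2, then exposed to DMSO-dissolved Tox21 10K compounds for 16 h at 37C. A LiveBLAzer B/G FRET substrate was loaded for 2 h at room temperature before fluorescence reading.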
# [2] = target: Vitamin D3 receptor (Homo sapiens) (UniProt P11473); test: qHTS assay to identify small molecule agonists of the vitamin D receptor (VDR) signaling pathway (AID 743222; calls by dose curve; for activation: % is set by controls: 0 for no effect and ±100 for the full control effect); conditions: HEK293T VDR-UAS-bla, beta-lactamase FRET ratio, 16 h; activation: at 63.5 µM (top of the series) unless noted
# Summary of the method: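 Fluorescence from cleaved LiveBLAzer B/G FRET substrate served as readout. VDR-bla cells had been treated 16 h at 37C with test compounds in DMSO, following a 4 h settling period, and substrate was loaded for 2 h at RT.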
# [3] = target: Vitamin D3 receptor (Homo sapiens) (UniProt P11473); test: qHTS assay to identify small molecule antagonists of the vitamin D receptor (VDR) signaling pathway (AID 743223; active = well fitted inhibition curve with a large enough effect in the signal ratio in the repeat runs, not every such curve was filed as active; inconclusive = weak or mixed curves, or effect the other way; inactive = no such curve, though single readings can be large or run the other way; the % refers to the signal ratio; for activity change, negative = inhibition: % is set by controls: 0 for no effect and ±100 for the full control effect); conditions: VDR-UAS-bla HEK293T, beta-lactamase FRET ratio, 16 h; activity change, negative = inhibition: at 61 µM (top of the series) unless noted
# Summary of the method: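 After VDR-bla cells are plated and left 4 h at 37C, DMSO-dissolved compounds and 3 nM (final) calcitriol agonist are added. Incubation continues 16 h at 37C; FRET beta-lactamase substrate then develops 2 h at room temperature.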
# [4] = qHTS assay to identify small molecule antagonists of the vitamin D receptor (VDR) signaling pathway - cell viability counter screen (AID 743225); conditions: VDR-bla HEK293T viability, CellTiter-Glo luminescence, 16 h; viability change, negative = cytotoxic: at 61 µM (top of the series); note: nearly all actives have a fitted effect of over 50% in size
# Summary of the method: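 Cytotoxicity toward the VDR-bla HEK 293T line was scored by ATP-based CellTiter-Glo luminescence, read in the wells already used for the beta-lactamase readout after 16 h compound treatment under 3 nM 1-alpha,25-dihydroxyvitamin D3 stimulation.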
# [5] = qHTS assay to identify small molecule agonists of the NFkB signaling pathway (AID 1159509; active = well fitted curve in the direction sought with a large enough effect in the signal ratio in the repeat runs, not every such curve was filed as active; inconclusive = weak or mixed curves, or a change in a side signal; inactive = no such curve, though single readings can be large or run the other way; the % refers to the signal ratio); conditions: NFkB-bla ME-180 cells, beta-lactamase FRET ratio, 5 h; activation: at 61 µM (top of the series) unless noted
# Summary of the method: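 Pathway activation was measured in ME-180 cells stably expressing beta-lactamase under NF-kB response element control. Substrate cleavage was read as the 460/530 nm emission shift after 5 hr compound incubation.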
# [6] = qHTS assay to identify small molecule agonists of the NFkB signaling pathway - cell viability counter screen (AID 1159515; calls by dose curve; note: nearly all actives have a fitted effect of over 55% in size)
# Summary of the method: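 Parallel cytotoxicity counter screen in ME-180 cells carrying an NFkB-response-element beta-lactamase reporter, 2,000 cells/well. Compound exposure lasted 5 hr at 37 C, 5% CO2. Cell viability was quantified by CellTiter-Glo luminescence.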
# [7] = qHTS assay to identify small molecule agonists of the endoplasmic reticulum stress response signaling pathway (AID 1159516; active = well fitted activation curve with a large enough effect in the signal ratio in the repeat runs, not every such curve was filed as active; inconclusive = weak or mixed curves, or effect the other way; the % refers to the signal ratio); conditions: ESRE-bla HeLa, ER stress beta-lactamase reporter, 5 h; activation: at 61 µM (top of the series) unless noted
# Summary of the method: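 Using a HeLa line with an ESRE-driven beta-lactamase gene, agonist activity was measured by FRET substrate fluorescence (460 and 530 nm emission) after cells were treated with compounds for 5 hr at 37 C and 5% CO2.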
# [8] = qHTS assay to identify small molecule antagonists of the farnesoid-X-receptor (FXR) signaling pathway - cell viability counter screen (AID 743221; active = well fitted cell-killing curve with a large enough effect in the repeat runs, not every such curve was filed as active; inconclusive = weak or mixed curves, or effect the other way; inactive = no such curve, though single readings can be large or run the other way; note: nearly all actives have a fitted effect of over 50% in size); conditions: FXR-bla HEK293T viability, CellTiter-Glo luminescence, 16 h; activity change, negative = cytotoxicity: at 62.6 µM (top of the series) unless noted
# Summary of the method: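 CellTiter-Glo, 30 min RT, luminescence; same wells as the LiveBLAzer FRET read. Cells: FXR-UAS-bla HEK 293T. Treatment: compound with chenodeoxycholic acid 50 uM final, 16 h at 37 C.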
# [9] = qHTS assay to identify small molecule agonists of the farnesoid-X-receptor (FXR) signaling pathway - cell viability counter screen (AID 743218); conditions: FXR-bla HEK293T viability, CellTiter-Glo luminescence, 16 h; viability change, negative = cytotoxic: at 62.6 µM (top of the series) unless noted; note: nearly all actives have a fitted effect of over 45% in size
# Summary of the method: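 Viability of FXR-bla HEK 293T cells is measured by ATP-based CellTiter-Glo luminescence following 16 h compound treatment at 37 C and a prior 2 h room-temperature beta-lactamase substrate step.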
# [10] = qHTS assay to identify small molecule agonists of the vitamin D receptor (VDR) signaling pathway - cell viability counter screen (AID 743224); note: nearly all actives have a fitted effect of over 50% in size
# Summary of the method: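 Compounds were pin-transferred onto VDR-bla cells plated 4 h earlier; following 16 h incubation at 37C, cell viability was quantified by CellTiter-Glo luminescence after 30 min at room temperature.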
# Potency is the fitted concentration of half-maximal effect; tags give direction and shape of the fitted curve or compound fluorescence and quenching.
# Chain of UniProt Q96RI1 (Q96RI1 whole entry, looked up): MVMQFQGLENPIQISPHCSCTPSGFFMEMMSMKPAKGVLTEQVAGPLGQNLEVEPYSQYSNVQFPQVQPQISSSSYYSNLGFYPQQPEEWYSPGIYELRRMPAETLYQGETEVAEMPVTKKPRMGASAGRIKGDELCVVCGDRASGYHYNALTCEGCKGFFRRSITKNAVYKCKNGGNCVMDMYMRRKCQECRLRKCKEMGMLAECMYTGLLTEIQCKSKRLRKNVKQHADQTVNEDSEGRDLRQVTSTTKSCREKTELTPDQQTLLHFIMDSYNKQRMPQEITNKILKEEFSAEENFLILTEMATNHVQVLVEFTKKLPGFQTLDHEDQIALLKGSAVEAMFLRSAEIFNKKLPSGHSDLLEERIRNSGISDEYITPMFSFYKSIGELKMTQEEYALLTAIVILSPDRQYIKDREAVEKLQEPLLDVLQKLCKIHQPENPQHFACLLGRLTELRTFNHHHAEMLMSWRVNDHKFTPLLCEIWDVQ
# Chain of UniProt P11473 (P11473 whole entry, looked up): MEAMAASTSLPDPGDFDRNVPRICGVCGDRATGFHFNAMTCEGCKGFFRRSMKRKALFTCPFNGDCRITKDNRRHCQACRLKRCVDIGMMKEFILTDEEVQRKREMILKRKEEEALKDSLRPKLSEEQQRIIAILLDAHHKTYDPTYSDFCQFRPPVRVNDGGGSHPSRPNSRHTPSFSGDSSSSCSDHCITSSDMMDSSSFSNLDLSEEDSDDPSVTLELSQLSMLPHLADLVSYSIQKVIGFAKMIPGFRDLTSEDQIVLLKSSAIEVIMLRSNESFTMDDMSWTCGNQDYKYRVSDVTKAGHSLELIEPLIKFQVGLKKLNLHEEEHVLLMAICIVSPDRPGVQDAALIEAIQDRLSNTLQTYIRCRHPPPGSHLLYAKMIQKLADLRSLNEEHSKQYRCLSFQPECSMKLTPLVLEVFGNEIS
SMILES,Potency [1],Potency [2],Potency [3],Potency [4],Potency [5],Potency [6],Potency [7],activation [1],Potency [8],Potency [9],Potency [10],activation [2],"activity change, negative = inhibition [3]"
CC1(C)CN=C(NN=C(/C=C/c2ccc(C(F)(F)F)cc2)/C=C/c2ccc(C(F)(F)F)cc2)NC1,inconclusive: 21.9 µM [cytotoxic],"inconclusive: 38.9 µM [cytotoxic, partial curve]",active: 13.8 µM,active: 11 µM,inconclusive: 24.5 µM,"inconclusive: 54.9 µM [cytotoxic, single point]","inconclusive: 21.9 µM [cytotoxic, partial curve]",–,–,–,–,–,–
CN(C)S(=O)(=O)N(SC(F)(Cl)Cl)c1ccccc1,–,"inconclusive: 3.89 µM [rising, full curve, poor fit]",inconclusive: 7.76 µM [full curve],active: 27.5 µM,"inconclusive: 13.8 µM [falling, full curve]","inconclusive: 54.9 µM [cytotoxic, single point]",inconclusive: 61.6 µM [single point],inconclusive: -0.803%,active: 43.6 µM,–,–,–,–
Clc1ccc(C(c2ccccc2Cl)C(Cl)(Cl)Cl)cc1 (stereo not drawn),–,–,–,"inconclusive: 13.9 µM [cytotoxic, full curve, poor fit] and inconclusive: 32.2 µM [cytotoxic, partial curve, poor fit]",inconclusive: 55.3 µM and inconclusive: 40.5 µM,"inconclusive: 55.3 µM [cytotoxic, single point] and inconclusive: 40.5 µM [cytotoxic, single point]","inconclusive: 49.3 µM [cytotoxic, partial curve] and inconclusive: 36.1 µM",–,–,"active: 62.1 µM and inconclusive: 40.5 µM [cytotoxic, single point]","inconclusive: 40.5 µM [cytotoxic, single point]",–,–
CCCCCCCCc1ccc(O)cc1,–,–,–,"inconclusive: 19.6 µM [cytotoxic, full curve]","inconclusive: 17.5 µM [falling, full curve]",active: 49.3 µM,inconclusive: 55.3 µM,–,"inconclusive: 1.75 µM [phenotype inactive, full curve, poor fit]",inconclusive: 0.78 µM [cytotoxic],"inconclusive: 9.83 µM [cytotoxic, full curve]",inconclusive: -2.23% [at 81.1 µM],–
CC(C)Oc1cccc(NC(=O)c2ccccc2C(F)(F)F)c1,–,–,–,inconclusive: 0.174 µM [cytotoxic],"inconclusive: 4.36 µM [rising, partial curve]",inconclusive: 49 µM [cytotoxic],"inconclusive: 0.0017 µM [rising, full curve, poor fit]",–,–,"inconclusive: 17.4 µM [cytotoxic, partial curve, poor fit]",–,–,inconclusive: -33.2%
[Cl][Hg][c]1ccccc1,"inconclusive: 15.5 µM [falling, full curve]",–,"inconclusive: 0.692 µM [rising, full curve]",active: 0.692 µM,"inconclusive: 4.9 µM [falling, full curve]",active: 3.89 µM,"inconclusive: 0.692 µM [fluorescent, full curve]",–,–,active: 1.55 µM,–,–,–
NNC(N)=S,–,–,"inconclusive: 57.1 µM [partial curve, poor fit] and inactive","inconclusive: 0.436 µM [cytotoxic, full curve, poor fit]","inconclusive: 64.1 µM [falling, single point]",inactive,"inconclusive: 25.5 µM [fluorescent, partial curve, poor fit]",–,"inconclusive: 45.4 µM [falling, partial curve, poor fit]","inconclusive: 25.5 µM [cytotoxic, partial curve]","active: 32.1 µM and inconclusive: 61.6 µM [cytotoxic, single point]",–,–
CCC[CH2][Sn]([CH2]CCC)([CH2]CCC)[O]C(=O)c1ccccc1,–,"inconclusive: 0.49 µM [rising, partial curve]","inconclusive: 1.55 µM [rising, partial curve]",active: 1.95 µM,"inconclusive: 0.49 µM [falling, full curve]",active: 0.436 µM,"inconclusive: 17.4 µM [falling, full curve]",–,active: 2.45 µM,active: 0.616 µM,–,–,–
